In PubChem BioAssay AID2147 (National Center for Advancing Translational Sciences (NCATS), 2009):
“And” between values parts separate entries of the source, which are not always exact repeats. Identical values can stand only once. The campaign covered roughly 230,000 compounds. About 3,600 (1.6%) were called active. The shares of active, inactive and inconclusive entries below differ from those in the screen. Calls come from the whole dose curve; as a rule, active = well fitted inhibition curve with a large enough effect (not every such curve was filed as active); inconclusive = small, poorly fitted or top-dose-only effect, or another doubt; inactive = no such curve, though single readings can be large or run the other way. Where the call is inconclusive, the potency comes from a doubtful curve fit.

biological target: Lysine-specific demethylase 4E (Homo sapiens) (UniProt B2RXH2); assay: qHTS Assay for Inhibitors of Human Jumonji Domain Containing 2E (JMJD2E); settings: JMJD2E catalytic domain, FDH-coupled NADH fluorescence (FDH is formaldehyde dehydrogenase); series mostly up to 57.1 µM; activity change, negative = inhibition: at the top concentration
UniProt B2RXH2, sequence (B2RXH2 whole entry, looked up, the tested form may be a part): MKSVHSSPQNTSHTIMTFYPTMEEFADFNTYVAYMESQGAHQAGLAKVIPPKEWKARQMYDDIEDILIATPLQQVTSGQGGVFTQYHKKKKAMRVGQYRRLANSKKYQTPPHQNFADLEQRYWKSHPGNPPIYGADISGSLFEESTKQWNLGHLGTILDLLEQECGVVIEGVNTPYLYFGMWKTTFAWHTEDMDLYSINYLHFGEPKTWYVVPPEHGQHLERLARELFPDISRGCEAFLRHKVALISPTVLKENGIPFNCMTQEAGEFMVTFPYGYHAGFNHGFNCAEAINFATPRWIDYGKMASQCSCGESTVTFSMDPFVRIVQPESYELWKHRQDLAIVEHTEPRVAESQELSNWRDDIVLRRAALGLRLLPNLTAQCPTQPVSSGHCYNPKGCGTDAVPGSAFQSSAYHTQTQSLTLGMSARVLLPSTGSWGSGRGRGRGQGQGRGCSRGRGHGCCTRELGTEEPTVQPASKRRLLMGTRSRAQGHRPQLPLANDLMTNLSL
Note: nearly all actives have a fitted effect of over 50% in size.
Potency is the fitted concentration of half-maximal effect; tags give direction and shape of the fitted curve.
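Throughout, for activity change, negative = inhibition: 0% = wells with enzyme and -100% = buffer wells without enzyme.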

Q: COc1cc2c(cc1OC)C(COc1ccc3c(C)cc(=O)oc3c1)N(C(=O)c1ccco1)CC2 (configuration not stated) was tested. Which Potency did it give?
A: inconclusive: 28.2 µM [inhibitor, single point]

Q: Which Potency does the source give for O=C1c2ccccc2C(=O)N1/N=C/c1ccc(O)c(O)c1O here?
A: active: 2.24 µM

Q: C=CCOc1c2ccc(C(=O)NCc3ccc(OC)cc3)cc2nn1C was tested. Which Potency did it give?
A: inconclusive: 6.31 µM [inhibitor, single point]

Q: Which Potency does the source give for COc1ccccc1Oc1c(C)oc2c(CN3CCOCC3)c(O)ccc2c1=O here?
A: inconclusive: 31.6 µM [inhibitor, partial curve]

Q: Which Potency does the source give for COc1ccc(N2CCC(CNC(=S)Nc3cccc(C)c3)C2)cc1 (configuration not stated) here?
A: inconclusive: 39.8 µM [inhibitor, single point]

Q: Which “activity change, negative = inhibition” value does the source give for COc1cc(/C=C2\SC(=S)N(N(C)c3ccccc3)C2=O)ccc1O here?
A: inactive: -19.7%

Q: For COC(=O)C1=C(C(=O)OC)[C@@H]2N(Cc3ccccc3)c3ccccc3[C@@]23C[C@@H](C(=O)OC)N(S(=O)(=O)c2ccc(C)cc2)C3=N1, which activity change, negative = inhibition is on record?
A: inactive: -6.19% [at 11.4 µM]

Q: With Cc1ccc(-c2nnc(NCc3nc4ccccc4[nH]3)c3ccccc23)cc1S(=O)(=O)N1CCOCC1 as the compound, how does the Potency read?
A: inconclusive: 39.8 µM [inhibitor, single point]

Q: COc1cc(/C=C(\C#N)C(=O)Nc2cccc3ncccc23)cc(OC)c1OC was tested. Which Potency did it give?
A: inconclusive: 22.4 µM [inhibitor, single point]

Q: Cc1nnc(SCc2cc(=O)[nH]c(=S)[nH]2)s1 was tested. Which “activity change, negative = inhibition” value did it give?
A: inactive: -15.5%

Q: Which Potency does the source give for O=C(O)c1cn(-c2ccccc2)nc1-c1ccncc1 here?
A: inconclusive: 31.6 µM [inhibitor, partial curve]

Q: With CCCNC(=O)c1ccc2nc(-c3ccccc3)c(-c3ccccc3)nc2c1 as the compound, how does the Potency read?
A: inconclusive: 35.5 µM [inhibitor, partial curve]

Q: For CC(=O)/C(=N\Nc1ccccc1Cl)Sc1nnc(-c2ccccc2)n1-c1ccccc1, which “activity change, negative = inhibition” value is on record?
A: inactive: -13.7%

Q: For O=C1c2cccc3cccc(c23)N1CN1CCN(c2ccccn2)CC1, which Potency is on record?
A: inconclusive: 35.5 µM [inhibitor, single point]

Q: Which Potency does the source give for Nc1ccc(S(=O)(=O)Nc2nccs2)cc1 here?
A: inconclusive: 39.8 µM [inhibitor, single point]

Q: How did the Potency turn out when CC(=O)c1ccc(O)c(CSc2nncn2C)c1 was run?
A: inconclusive: 31.6 µM [inhibitor, single point]

Q: For COc1ccc(/C=N/NC(=O)c2cc(C34CC5CC(CC(C5)C3)C4)[nH]n2)cc1OC, which Potency is on record?
A: inconclusive: 22.4 µM [inhibitor, single point]

Q: How did the Potency turn out when COc1cc2c(C(=O)c3ccccc3)c3c4c(cc(OC)c(OC)c4c2cc1OC)CCN3C was run?
A: inconclusive: 4.47 µM [inhibitor, full curve]

Q: How did the “activity change, negative = inhibition” value turn out when COc1ccccc1-n1nnnc1SCC(=O)Nc1cc(C)on1 was run?
A: inactive: -2.64%

Q: How did the Potency turn out when CCOc1ccc2[nH]c(=O)c(CN(CCO)C(c3nnnn3C3CCCCC3)C(C)C)cc2c1 (configuration not stated) was run?
A: inconclusive: 39.8 µM [inhibitor, single point]

Q: Which Potency does the source give for O=c1c2ccccc2nc(-c2ccc(Cl)cc2Cl)n1O here?
A: inconclusive: 39.8 µM [inhibitor, single point]

Q: Which “activity change, negative = inhibition” value does the source give for CCC(C)c1ccc(NC(=S)Nc2ccc(OC)c(OC)c2)cc1 (configuration not stated) here?
A: inactive: -1.63%

Q: Cc1cc(Cl)nc(Cl)c1C(=O)NC(=O)NCCC(C)C was tested. Which “activity change, negative = inhibition” value did it give?
A: inactive: 2.49%

Q: CCN1CCN(CCNC(=O)c2ccc(/C=C3/Sc4ccccc4N(Cc4ccccc4C)C3=O)cc2)CC1 was tested. Which Potency did it give?
A: inconclusive: 39.8 µM [inhibitor, single point]

Q: CCCCOC(=O)C1CN(c2ccccc2)N=C1C(C)=O (configuration not stated) was tested. Which Potency did it give?
A: inconclusive: 39.8 µM [inhibitor, single point]

Q: For COc1ccc(-c2ccnc(SCC(=O)N3CCOCC3)n2)cc1, which Potency is on record?
A: inconclusive: 35.5 µM [inhibitor, partial curve]

Q: With COC(=O)c1cccc(COC(=O)c2ccccc2NC(=O)c2ccco2)c1 as the compound, how does the Potency read?
A: inconclusive: 35.5 µM [inhibitor, single point]

Q: For O=C(Nc1cc(S(=O)(=O)N2CCCCC2)ccc1Cl)c1ccccc1NS(=O)(=O)c1ccc(F)cc1, which Potency is on record?
A: inconclusive: 25.1 µM [inhibitor, partial curve]

Q: Which “activity change, negative = inhibition” value does the source give for O=C(Oc1cccc2c(O)cccc12)c1ccccc1 here?
A: inactive: -6.37%

Q: For O=C(NC[C@@H]1CCCCN1)c1cc(OCC(F)(F)F)ccc1OCC(F)(F)F, which “activity change, negative = inhibition” value is on record?
A: inactive: 3.08% [at 25.5 µM]

Q: Which Potency does the source give for CCOC(=O)N1CCC(Nc2c(Nc3ccc(F)cc3)c(=O)c2=O)CC1 here?
A: inconclusive: 25.1 µM [inhibitor, partial curve]

Q: With COc1cc(OC)c2ccc(=O)oc2c1C(CC(=O)N1CCCC1)c1ccc2c(c1)OCO2 (configuration not stated) as the compound, how does the Potency read?
A: inconclusive: 35.5 µM [inhibitor, single point]

Q: For CCCN(CCC)S(=O)(=O)c1ccc(C(=O)Nc2nc3c(s2)CCc2ccccc2-3)cc1, which Potency is on record?
A: inconclusive: 3.55 µM [inhibitor, full curve]

Q: How did the Potency turn out when COc1cccc(-c2nnc(-c3ccc(C(F)(F)F)cc3)o2)c1 was run?
A: inconclusive: 31.6 µM [inhibitor, partial curve]

Q: CCCCc1nc(S(=O)(=O)c2ccc(Cl)cc2)c(N2CCOCC2)o1 was tested. Which Potency did it give?
A: inconclusive: 35.5 µM [inhibitor, single point]

Q: With Cc1oc(/N=C/c2c(O)ccc3ccccc23)c(C#N)c1C as the compound, how does the Potency read?
A: inconclusive: 17.8 µM [inhibitor, partial curve]

Q: For CCOc1ccccc1NC(=O)C(OC(=O)C1CC1)c1ccccc1 (configuration not stated), which “activity change, negative = inhibition” value is on record?
A: inactive: 3.29%

Q: Which Potency does the source give for COc1cccc(/C=C/C(=O)OCC(=O)c2c[nH]c3ccccc23)c1OC here?
A: inconclusive: 31.6 µM [inhibitor, partial curve]

Q: Cc1cccc(-c2nc(CS(=O)CC(=O)N3CCc4ccccc4C3)c(C)o2)c1 (configuration not stated) was tested. Which “activity change, negative = inhibition” value did it give?
A: inactive: -0.787%

Q: How did the Potency turn out when COc1ccc(C(=O)[C@H]2[C@H]3C(=O)N(c4ccccc4)C(=O)[C@H]3C3C=CC=NN32)cc1 (some centres not stated) was run?
A: inconclusive: 11.2 µM [inhibitor, partial curve]

Q: For COc1cc2ccc(=O)oc2c(O)c1O, which Potency is on record?
A: inconclusive: 7.08 µM [inhibitor, partial curve] and inconclusive: 14.1 µM [inhibitor, partial curve]

Q: Cc1cccc2cc(C#N)c(NCCCNS(=O)(=O)c3ccc(Cl)cc3)nc12 was tested. Which Potency did it give?
A: inconclusive: 28.2 µM [inhibitor, partial curve]
